# The list shows a part of the results.
# B1: ABA (Agaricus bisporus), Q00022 (protein)
# chain: MTYTISIRVYQTTPKGFFRPVERTNWKYANGGTWDEVRGEYVLTMGGSGTSGSLRFVSSDTDESFVATFGVHNYKRWCDIVTNLTNEQTALVINQEYYGVPIRDQARENQLTSYNVANAKGRRFAIEYTVTEGDNLKANLIIG
# Legend:
# Assay in all cases: glycan array binding signal (z-score within array); higher = stronger binding
# Details in all cases: glycan notation: IUPAC condensed, linker removed
# [1] = molecular target: GlcNAc(b1-3)Gal(b1-4)GlcNAc(b1-3)Gal(b1-4)GlcNAc(b1-2)Man(a1-3)[GlcNAc(b1-3)Gal(b1-4)GlcNAc(b1-3)Gal(b1-4)GlcNAc(b1-2)Man(a1-6)]Man(b1-4)GlcNAc(b1-4)[Fuc(a1-6)]GlcNAc
# In short: (§1)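 From the Consortium for Functional Glycomics database, 3228 arrays were curated, keeping only those whose protein sequence was available. Binding is given as a within-array Z-score averaged across arrays sharing a protein sequence and across linkers. Negative Z-scores can be read as non-binding.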
# [2] = molecular target: GlcNAc(b1-3)Gal(b1-4)GlcNAc(b1-3)Gal(b1-4)GlcNAc(b1-2)[GlcNAc(b1-3)Gal(b1-4)GlcNAc(b1-3)Gal(b1-4)GlcNAc(b1-6)]Man(a1-6)[GlcNAc(b1-3)Gal(b1-4)GlcNAc(b1-3)Gal(b1-4)GlcNAc(b1-2)Man(a1-3)]Man(b1-4)GlcNAc(b1-4)[Fuc(a1-6)]GlcNAc
# In short: as §1
# [3] = molecular target: GlcNAc(b1-3)Gal(b1-4)GlcNAc(b1-3)Gal(b1-4)GlcNAc(b1-3)Gal(b1-4)GlcNAc(b1-2)Man(a1-3)[GlcNAc(b1-3)Gal(b1-4)GlcNAc(b1-3)Gal(b1-4)GlcNAc(b1-3)Gal(b1-4)GlcNAc(b1-2)Man(a1-6)]Man(b1-4)GlcNAc(b1-4)GlcNAc
# In short: as §1
# [4] = molecular target: GlcNAc(b1-3)Gal(b1-4)GlcNAc(b1-3)Gal(b1-4)GlcNAc(b1-3)Gal(b1-4)GlcNAc(b1-2)Man(a1-3)[GlcNAc(b1-3)Gal(b1-4)GlcNAc(b1-3)Gal(b1-4)GlcNAc(b1-3)Gal(b1-4)GlcNAc(b1-2)Man(a1-6)]Man(b1-4)GlcNAc(b1-4)[Fuc(a1-6)]GlcNAc
# In short: as §1
# [5] = molecular target: GlcNAc(b1-3)Gal(b1-4)GlcNAc(b1-3)Gal(b1-4)GlcNAc(b1-3)Gal(b1-4)GlcNAc(b1-2)[GlcNAc(b1-3)Gal(b1-4)GlcNAc(b1-3)Gal(b1-4)GlcNAc(b1-3)Gal(b1-4)GlcNAc(b1-6)]Man(a1-6)[GlcNAc(b1-3)Gal(b1-4)GlcNAc(b1-3)Gal(b1-4)GlcNAc(b1-3)Gal(b1-4)GlcNAc(b1-2)Man(a1-3)]Man(b1-4)GlcNAc(b1-4)[Fuc(a1-6)]GlcNAc
# In short: as §1
# [6] = molecular target: GlcNAc(b1-3)Gal(b1-4)GlcNAc(b1-3)Gal(b1-4)GlcNAc(b1-3)Gal(b1-4)GlcNAc(b1-3)Gal(b1-4)GlcNAc(b1-2)Man(a1-3)[GlcNAc(b1-3)Gal(b1-4)GlcNAc(b1-3)Gal(b1-4)GlcNAc(b1-3)Gal(b1-4)GlcNAc(b1-3)Gal(b1-4)GlcNAc(b1-2)Man(a1-6)]Man(b1-4)GlcNAc(b1-4)GlcNAc
# In short: as §1
# [7] = molecular target: GlcNAc(b1-3)Gal(b1-4)GlcNAc(b1-3)Gal(b1-4)GlcNAc(b1-3)Gal(b1-4)GlcNAc(b1-3)Gal(b1-4)GlcNAc(b1-2)Man(a1-3)[GlcNAc(b1-3)Gal(b1-4)GlcNAc(b1-3)Gal(b1-4)GlcNAc(b1-3)Gal(b1-4)GlcNAc(b1-3)Gal(b1-4)GlcNAc(b1-2)Man(a1-6)]Man(b1-4)GlcNAc(b1-4)[Fuc(a1-6)]GlcNAc
# In short: as §1
# [8] = molecular target: GlcNAc(b1-3)Gal(b1-4)GlcNAc(b1-3)Gal(b1-4)GlcNAc(b1-3)Gal(b1-4)GlcNAc(b1-3)Gal(b1-4)GlcNAc(b1-2)[GlcNAc(b1-3)Gal(b1-4)GlcNAc(b1-3)Gal(b1-4)GlcNAc(b1-3)Gal(b1-4)GlcNAc(b1-3)Gal(b1-4)GlcNAc(b1-6)]Man(a1-6)[GlcNAc(b1-3)Gal(b1-4)GlcNAc(b1-3)Gal(b1-4)GlcNAc(b1-3)Gal(b1-4)GlcNAc(b1-3)Gal(b1-4)GlcNAc(b1-2)Man(a1-3)]Man(b1-4)GlcNAc(b1-4)[Fuc(a1-6)]GlcNAc
# In short: as §1
# [9] = molecular target: GlcNAc(b1-3)Gal(b1-4)GlcNAc(b1-3)Gal(b1-4)GlcNAc(b1-3)GalNAc
# In short: as §1
# [10] = molecular target: GlcNAc(b1-3)Gal(b1-4)GlcNAc(b1-3)GalNAc
# In short: as §1
# [11] = molecular target: GlcNAc(b1-3)Gal(b1-4)GlcNAc(b1-3)[GlcNAc(b1-3)Gal(b1-4)GlcNAc(b1-3)]GalNAc
# In short: as §1
# [12] = molecular target: GlcNAc(b1-3)Gal(b1-4)GlcNAc(b1-6)[Gal(b1-3)]GalNAc
# In short: as §1
# [13] = molecular target: GlcNAc(b1-3)Gal(b1-4)GlcNAc(b1-6)[GlcNAc(b1-3)Gal(b1-3)]GalNAc
# In short: as §1
# [14] = molecular target: GlcNAc(b1-3)Gal(b1-4)GlcNAc(b1-6)[GlcNAc(b1-3)]Gal(b1-4)GlcNAc
# In short: as §1
# GlcNAc(b1-3)GalNAc = molecular target: GlcNAc(b1-3)GalNAc
# In short: as §1
# GlcNAc(b1-3)Man = molecular target: GlcNAc(b1-3)Man
# In short: as §1
# [15] = molecular target: GlcNAc(b1-3)[GlcNAc(b1-4)][GlcNAc(b1-6)]GlcNAc
# In short: as §1
# [16] = molecular target: GlcNAc(b1-3)[GlcNAc(b1-6)]Gal(b1-4)GlcNAc
# In short: as §1
# [17] = molecular target: GlcNAc(b1-3)[GlcNAc(b1-6)]GalNAc
# In short: as §1
# [18] = molecular target: GlcNAc(b1-3)[GlcNAc(b1-6)]GlcNAc(b1-4)GlcNAc
# In short: as §1
# [19] = molecular target: GlcNAc(b1-4)Gal(b1-4)GlcNAc
# In short: as §1
# GlcNAc(b1-4)GlcNAc = molecular target: GlcNAc(b1-4)GlcNAc
# In short: as §1
# [20] = molecular target: GlcNAc(b1-4)GlcNAc(b1-4)GlcNAc
# In short: as §1
# [21] = molecular target: GlcNAc(b1-4)GlcNAc(b1-4)GlcNAc(b1-4)GlcNAc(b1-4)GlcNAc
# In short: as §1
# [22] = molecular target: GlcNAc(b1-4)GlcNAc(b1-4)GlcNAc(b1-4)GlcNAc(b1-4)GlcNAc(b1-4)GlcNAc
# In short: as §1
# [23] = molecular target: GlcNAc(b1-4)[GlcNAc(b1-6)]GalNAc
# In short: as §1
# [24] = molecular target: GlcNAc(b1-6)Gal(b1-4)GlcNAc
# In short: as §1
# GlcNAc(b1-6)GalNAc = molecular target: GlcNAc(b1-6)GalNAc
# In short: as §1
# [25] = molecular target: GlcNAc6S(b1-3)Gal(b1-4)GlcNAc
# In short: as §1
# Kdn(a2-3)Gal(b1-3)GalNAc = molecular target: Kdn(a2-3)Gal(b1-3)GalNAc
# In short: as §1
# Kdn(a2-3)Gal(b1-3)GlcNAc = molecular target: Kdn(a2-3)Gal(b1-3)GlcNAc
# In short: as §1
# Kdn(a2-3)Gal(b1-4)Glc = molecular target: Kdn(a2-3)Gal(b1-4)Glc
# In short: as §1
# Kdn(a2-3)Gal(b1-4)GlcNAc = molecular target: Kdn(a2-3)Gal(b1-4)GlcNAc
# In short: as §1
# [26] = molecular target: Kdn(a2-3)Gal(b1-4)[Fuc(a1-3)]GlcNAc
# In short: as §1
# Kdn(a2-6)Gal(b1-4)GlcNAc = molecular target: Kdn(a2-6)Gal(b1-4)GlcNAc
# In short: as §1
# [27] = molecular target: Man(a1-2)Man(a1-2)Man(a1-3)Man
# In short: as §1
# [28] = molecular target: Man(a1-2)Man(a1-2)Man(a1-6)[Man(a1-3)]Man
# In short: as §1
# Man(a1-2)Man(a1-3)Man = molecular target: Man(a1-2)Man(a1-3)Man
# In short: as §1
# [29] = molecular target: Man(a1-2)Man(a1-3)[Man(a1-2)Man(a1-6)]Man
# In short: as §1
# [30] = molecular target: Man(a1-2)Man(a1-3)[Man(a1-2)Man(a1-6)]Man(a1-6)[Man(a1-2)Man(a1-2)Man(a1-3)]Man
# In short: as §1
# [31] = molecular target: Man(a1-2)Man(a1-3)[Man(a1-2)Man(a1-6)]Man(a1-6)[Man(a1-2)Man(a1-2)Man(a1-3)]Man(b1-4)GlcNAc(b1-4)GlcNAc
# In short: as §1
# [32] = molecular target: Man(a1-2)Man(a1-3)[Man(a1-2)Man(a1-6)]Man(a1-6)[Man(a1-3)[Man(a1-6)]Man(a1-6)]Man(b1-4)GlcNAc(b1-4)GlcNAc
# In short: as §1
# [33] = molecular target: Man(a1-2)Man(a1-3)[Man(a1-6)]Man(a1-6)[Man(a1-2)Man(a1-3)]Man(b1-4)GlcNAc(b1-4)GlcNAc
# In short: as §1
# [34] = molecular target: Man(a1-2)Man(a1-6)[Man(a1-3)]Man(a1-6)[Man(a1-2)Man(a1-2)Man(a1-3)]Man
# In short: as §1
# [35] = molecular target: Man(a1-2)Man(a1-6)[Man(a1-3)]Man(a1-6)[Man(a1-2)Man(a1-2)Man(a1-3)]Man(b1-4)GlcNAc(b1-4)GlcNAc
# In short: as §1
binder,measurement,setting,value
B1,glycan array binding signal (z-score),[1],1.39
same,glycan array binding signal (z-score),[2],0.382
same,glycan array binding signal (z-score),[3],1.01
same,glycan array binding signal (z-score),[4],1.22
same,glycan array binding signal (z-score),[5],0.984
same,glycan array binding signal (z-score),[6],2.07
same,glycan array binding signal (z-score),[7],1.76
same,glycan array binding signal (z-score),[8],1.48
same,glycan array binding signal (z-score),[9],-0.202
same,glycan array binding signal (z-score),[10],0.272
same,glycan array binding signal (z-score),[11],0.316
same,glycan array binding signal (z-score),[12],0.941
same,glycan array binding signal (z-score),[13],2.74
same,glycan array binding signal (z-score),[14],0.002
same,glycan array binding signal (z-score),GlcNAc(b1-3)GalNAc,-0.068
same,glycan array binding signal (z-score),GlcNAc(b1-3)Man,0.344
same,glycan array binding signal (z-score),[15],-0.238
same,glycan array binding signal (z-score),[16],-0.09
same,glycan array binding signal (z-score),[17],-0.079
same,glycan array binding signal (z-score),[18],-0.16
same,glycan array binding signal (z-score),[19],-0.328
same,glycan array binding signal (z-score),GlcNAc(b1-4)GlcNAc,-0.236
same,glycan array binding signal (z-score),[20],-0.093
same,glycan array binding signal (z-score),[21],-0.172
same,glycan array binding signal (z-score),[22],-0.05
same,glycan array binding signal (z-score),[23],-0.251
same,glycan array binding signal (z-score),[24],-0.227
same,glycan array binding signal (z-score),GlcNAc(b1-6)GalNAc,0.053
same,glycan array binding signal (z-score),[25],-0.026
same,glycan array binding signal (z-score),Kdn(a2-3)Gal(b1-3)GalNAc,0.099
same,glycan array binding signal (z-score),Kdn(a2-3)Gal(b1-3)GlcNAc,-0.215
same,glycan array binding signal (z-score),Kdn(a2-3)Gal(b1-4)Glc,-0.171
same,glycan array binding signal (z-score),Kdn(a2-3)Gal(b1-4)GlcNAc,-0.258
same,glycan array binding signal (z-score),[26],-0.159
same,glycan array binding signal (z-score),Kdn(a2-6)Gal(b1-4)GlcNAc,-0.239
same,glycan array binding signal (z-score),[27],-0.223
same,glycan array binding signal (z-score),[28],-0.042
same,glycan array binding signal (z-score),Man(a1-2)Man(a1-3)Man,-0.24
same,glycan array binding signal (z-score),[29],-0.219
same,glycan array binding signal (z-score),[30],-0.274
same,glycan array binding signal (z-score),[31],0.46
same,glycan array binding signal (z-score),[32],-0.133
same,glycan array binding signal (z-score),[33],-0.219
same,glycan array binding signal (z-score),[34],-0.215
same,glycan array binding signal (z-score),[35],-0.237
